# According to PubChem BioAssay AID1508642 (National Center for Advancing Translational Sciences (NCATS), 2021):
# About 200 (0.47%) of roughly 43,000 compounds were called active. Not shown: some 12% with an inconclusive outcome. Calls come from the whole dose curve; as a rule, active = well fitted cell-killing curve with a large enough effect; inconclusive = small, poorly fitted or top-dose-only effect, or effect the other way; inactive = flat fitted curve, though single readings scatter. The list shows a part of the results.
# Test: Cell viability qHTS assay in S16 Pmp22-F2sN cells; note: nearly all actives have a fitted effect of over 65% in size
# Details: S16 Pmp22-F2sN Schwann cells viability, CellTiter-Glo, 24 h; series mostly up to 57.5 µM; activity change, negative = cytotoxicity: at the top concentration
# Procedure, shortened: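 Viability was measured by CellTiter-Glo luminescence (15 min, room temperature). This followed 24 h at 37 °C of compound exposure (23 nL pin transfer) in S16 Pmp22-F2sN Schwann cells, 500-1,000 per well.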
# % is set by controls: 0 for no effect and ±100 for the full control effect.
row,SMILES,"activity change, negative = cytotoxicity"
1,CCCSCCCNC(=O)c1ccc(Cn2c(=O)c3cccn3c3cccnc32)cc1,inactive: -2.15%
2,Cc1ccc(NC(=O)CN(C)S(=O)(=O)c2ccc3nc(C)sc3c2)c(C)c1,inactive: -3.54%
3,CC(C)NS(=O)(=O)c1ccc2nc(NC(=O)c3cncc(Br)c3)sc2c1,inactive: -3.96%
4,Cc1ccc(Cn2nnc(C(=O)Nc3ccc(F)c(F)c3)c2N)cc1,inactive: 2.41%
5,COc1ccc(S(=O)(=O)N2CCC(n3c(C(F)(F)F)nc4cccnc43)CC2)cc1OC,inactive: -25.3%
6,COc1ccc(C(=O)CN2C(=O)N(c3ccc(C(C)=O)cc3)S(=O)(=O)c3ccccc32)cc1,inactive: -16.8%
7,O=C(CSc1nc(-c2ccccc2)no1)N1CCCCC1,inactive: -0.116%
8,CCOC(=O)N1CCc2c(sc3c2c(=O)n(CCc2ccccc2)c(=O)n3Cc2ccc(F)cc2)C1,inactive: 4.26%
9,Cc1ccccc1-c1nn2c(=O)cc(CN3CCN(C(=O)c4ccc(C(C)(C)C)cc4)CC3)nc2s1,inactive: -26%
10,O=C1CC(c2ccccc2)Cc2[nH]c(=O)c(C(=O)Nc3cccc(Cl)c3)cc21 (centres undefined),inactive: 1.03%
11,COC(=O)c1ccc(NC(=O)CN2CCN(c3ccc(Cl)cc3)CC2)cc1,inactive: 3.29%
12,COc1ccc(NC(=O)c2cn(-c3ccccc3)nc2-c2ccc(C)cc2)cc1,inactive: 6.38%
13,CCOc1ccccc1-n1cc2c(c1-c1ccc(OC)cc1)c(=O)n(C)c(=O)n2C,inactive: 4.57%
14,Cc1ccc(N(C)C(=O)C2CCN(S(=O)(=O)c3ccc4c(c3)CCCN4C(=O)C3CCC3)CC2)cc1,inactive: 13%
15,COc1ccccc1N1CCN(c2ncnc3c2cnn3C)CC1,inactive: -12.9%
16,CCc1ccc(C(=O)COC(=O)C(Cc2c[nH]c3ccccc23)NC(=O)c2ccc(Br)cc2)cc1 (centres undefined),inactive: -2.94%
17,CCOc1ccc(C2c3cc(OCC)c(OCC)cc3CC(=O)N2c2ccc(C(=O)O)cc2)cc1OCC (centres undefined),inactive: -9.29%
18,CCOC(=O)c1cccc(NC(=O)C2CCN(S(=O)(=O)c3ccc4c(c3)oc(=O)n4C)CC2)c1,inactive: -6.08%
19,COc1ccc(S(=O)(=O)N(CCc2ccccc2)CC(=O)Nc2cccc(OC)c2)cc1,inactive: 0.173%
20,CCc1cccc(C)c1NC(=O)Cn1ccn(-c2ccc(F)cc2)c(=O)c1=O,inactive: 2.31%
21,Cc1nc2ccc(S(=O)(=O)N(C)CC(=O)Nc3ccc(Br)c(C)c3)cc2s1,inactive: 1.39%
22,COc1ccc(CCN2C(=O)c3oc4ccc(F)cc4c(=O)c3C2c2ccc(C(C)(C)C)cc2)cc1 (centres undefined),inactive: 6.57%
23,CN(Cc1ccccc1)S(=O)(=O)c1ccc(F)c(C(=O)Nc2cccc(Cl)c2Cl)c1,inactive: -25.2%
24,Cc1ccc(C(C)(C)C)c(OCC(=O)NCCc2nc3ccccc3[nH]2)c1,inactive: 5.47%

row,SMILES,"activity change, negative = cytotoxicity"
1,Cc1ccccc1NS(=O)(=O)c1ccc(Br)s1,inactive: 2.73%
2,COc1ccc(-c2nc3sc(CCNC(=O)c4cc(Cl)ccc4OC)c(C)n3n2)cc1,inactive: 2.41%
3,CCOc1ccc(C2=NC(c3cccs3)=Nc3ccc(C(C)C)cc3N2)cc1,inactive: 8.54%
4,Cc1cccc(CC2C(=O)Nc3ccccc32)c1 (centres undefined),inactive: -18.6%
5,CCOc1ccccc1-n1nnc(-c2nc(-c3ccccc3)no2)c1N,inactive: -0.137%
6,Cc1c(/C=C(\C#N)C(=O)Nc2cccc(Cl)c2)c2ccccc2n1Cc1ccccc1Cl,inactive: -13.1%
7,CCN(CC)c1cc2c(cc1F)c(=O)c(S(=O)(=O)c1cc(C)ccc1C)cn2Cc1ccccc1,inactive: -0.231%
8,O=C(CCCn1c(=O)c2cccn2c2cccnc21)NCc1ccc(F)cc1,inactive: 0.67%
9,CCC1CCCCN1CC(=O)N1CCCc2c1c(=O)oc1ccc(OCc3ccccc3)cc21 (centres undefined),inactive: -26.9%
10,COc1cccc2c1cc1c(=O)n(CC(=O)N3CCN(c4cc(Cl)ccc4C)CC3)nc(C)n12,inactive: 10.6%
11,CCOC(=O)c1ccc(NC(=O)C2=C(C)Nc3nc(SCc4ccc(Cl)cc4)nn3C2c2ccc(OC)cc2)cc1 (centres undefined),inactive: -9.97%
12,COc1ccc(-c2nnc(SCC(=O)Nc3ccc(Cl)cc3)s2)cc1,inactive: -11.6%
13,COc1ccc(C(=O)CC2(O)C(=O)N(Cc3ccccc3Cl)c3ccccc32)cc1 (centres undefined),inactive: -23.9%
14,COc1ccc(CNC(=O)CCC(=O)N2CCSc3ccccc32)cc1,inactive: -1.92%
15,CCOc1ccc(-n2c(C)nc3cc(C(=O)NCCC4=CCCCC4)ccc32)cc1,inactive: 21.7%
16,Cc1cc(C)cc(N2CCn3c2nc2c3c(=O)n(Cc3ccc(Cl)cc3)c(=O)n2C)c1,inactive: 7.63%
17,CC(C)c1ccc(CNc2nc(-c3ccco3)nn2S(=O)(=O)c2ccc3ccccc3c2)cc1,inactive: -1.03%
18,COc1ccc(CNC(=O)Cn2nnc(-c3ccc(S(C)(=O)=O)cc3)n2)cc1,inactive: -1.12%
19,O=S(=O)(c1ccccc1)c1nc(-c2ccc(Cl)cc2Cl)oc1N1CCCCCC1,inactive: -7.9%
20,COc1cc2c(cc1OC)C(COc1ccc(F)cc1)N(C(=O)Cc1ccc(F)cc1)CC2 (centres undefined),inactive: -20.4%
21,CCCCNC(=O)CSc1nc2cc3c(cc2c(=O)n1CCCCCC(=O)NCc1ccc2c(c1)OCO2)OCO3,inactive: 7.04%
22,Cc1ccc(-n2c(SCC(=O)NCc3ccc(F)cc3)nc3c([nH]c4ccccc43)c2=O)cc1,inactive: -14.1%
23,Cc1ccc2oc3c(c(=O)c2c1)C(c1ccccc1F)N(CCCN1CCOCC1)C3=O (centres undefined),inactive: 7.29%
24,COc1ccc(N(CC(=O)NCCc2ccccc2)S(=O)(=O)c2ccccc2)c(OC)c1,inactive: 0.988%

row,SMILES,"activity change, negative = cytotoxicity"
1,CCOC(=O)C1CCN(c2ncnc3c2nnn3C)CC1,inactive: -15.6%
2,Cc1ccc(CN(C(=O)COc2cccc([N+](=O)[O-])c2)c2ccccn2)cc1,inactive: 0.293%
3,CC(C)NC(=O)c1ccc(-n2c(-c3ccccc3)cc3c2CCCCC3)cc1,inactive: -0.592%
4,COc1ccc(Cl)cc1NC(=O)Cn1cc(C(=O)c2ccncc2)c(=O)c2cc(C)ccc21,inactive: 7.71%
5,Nc1ncc(S(=O)(=O)NCc2ccc(Cl)cc2)cn1,inactive: -1.23%
6,Cc1cc(C)cc(OCC(=O)Nc2ccc(-c3nc4ccccc4s3)cc2)c1,inactive: 8.1%
7,COc1cc2nc(SCc3cccc(Cl)c3)n3nc(CCn4nc(C)cc4C)nc3c2cc1OC,inactive: -0.36%
8,CCOc1ccc(-c2cc(OC(=O)c3ccccc3)c3c(C)oc(C)c3c(=O)c2)cc1,inactive: -3.09%
9,Cn1nnc2c(N3CCN(c4ccccc4F)CC3)ncnc21,inactive: -5.14%
10,O=C(CSc1nc2ccccc2n1Cc1ccccc1F)NCc1ccccc1,inactive: 7.96%
11,Cc1ccccc1C(=O)Nc1cccc(C(=O)OCc2cc(=O)n3c4c(sc3n2)CCCC4)c1,inactive: -1%
12,CCC(Sc1nc2cc(OC)c(OC)cc2c(=O)n1CCc1ccc(Cl)cc1)C(=O)NCCOC (centres undefined),inactive: 8.91%
13,Cc1ccc(C)c(N2C(=O)N(Cc3cc(=O)n4ccccc4n3)c3ccccc3S2(=O)=O)c1,inactive: 17.9%
14,CCOC(=O)c1c(C)oc2ncnc(Nc3ccc(OCC)cc3)c12,inactive: 3.16%
15,COc1cccc(C(=O)c2sc3nc(-c4ccccc4)cc(C(F)(F)F)c3c2N)c1,inactive: 14.6%
16,Cc1ccc(C)n1-c1nnc(N2CCCC(C(=O)Nc3ccc(C(C)C)cc3)C2)s1 (centres undefined),inactive: -12.5%
17,COC(=O)c1ccccc1NC(=O)Cn1c(=O)n(Cc2ccc(C(=O)NCc3ccc4c(c3)OCO4)cc2)c(=O)c2ccccc21,inactive: -1.84%
18,Cc1ccc(N(CC(=O)NCCc2ccccc2)S(=O)(=O)N(C)C)cc1,inactive: -1.33%
19,COc1cccc(NC(=O)CNC(=O)Cn2c(C)cc3ccccc3c2=O)c1,inactive: 7.22%
20,CCCCOc1ccc(C(=O)Nc2ccc(-c3nc4ccccc4s3)cc2C)cc1,inactive: 11%
21,Cn1ccc2cc(S(=O)(=O)N3CCC(C(=O)NCCc4ccccc4)CC3)ccc21,inactive: 3.91%
22,COc1cc(C)ccc1OCCSc1nc2ccc(NC(=O)c3ccc(F)cc3)cc2s1,inactive: 0.231%
23,N#Cc1ccccc1NC(=O)Cn1cnc2onc(-c3cccc(F)c3)c2c1=O,inactive: 13.2%
24,CCc1cccc(NC(=O)Nc2csc3c2CCCC3)c1,inactive: 15.3%

row,SMILES,"activity change, negative = cytotoxicity"
1,O=C(CN1C(=O)CCc2cc(S(=O)(=O)N3CCOCC3)ccc21)NCc1ccc(F)cc1,inactive: 1.73%
2,Cc1ccc(CNC(=O)c2ccc3c(c2)nc(C)n3-c2cc(C)cc(C)c2)cc1,inactive: -16.7%
3,O=C(COc1ccccc1F)Nc1ccc(-c2nc3ccccc3s2)cc1,inactive: 8.13%
4,COc1ccc(OC)c(NC(=O)N2CCN(S(=O)(=O)c3ccc4c(ccn4C)c3)CC2)c1,inactive: 1.59%
5,COc1ccc(C(CNC(=O)c2oc3ccc(C)cc3c2C)N2CCOCC2)cc1 (centres undefined),inactive: 11.7%
6,CCn1cc(C(=O)N2CCN(c3cccc(Cl)c3)CC2)c(=O)c2cc(S(=O)(=O)N3CCCCC3)ccc21,inactive: -7.69%
7,COc1ccc(OC)c(NC(=O)Cn2c(=O)n(Cc3ccccc3)c(=O)c3ccccc32)c1,inactive: 14.4%
8,Cc1ccc2nc(-c3ccc(O)cc3)c(Nc3ccc4c(c3)OCCO4)n2c1,inactive: -20.9%
9,CCCSCCCNC(=O)C1CCN(c2nn3cc(-c4ccc(F)cc4)nc3s2)CC1,inactive: -29.3%
10,CCCn1c(-c2ccc(S(=O)(=O)N3CCOCC3)cc2)csc1=Nc1ccc(OCC)cc1,inactive: 14.1%
11,CC(C)Cn1c(=O)c2ccccc2n2c(CCC(=O)N3CCN(c4ccccc4F)CC3)nnc12,inactive: 25.3%
12,CCOC(=O)c1c(C)oc2nc(C)nc(Nc3ccc(CC)cc3)c12,inactive: 13.5%
13,CCn1c(C(=O)N2CCC(C(=O)NCCc3ccc(OC)cc3OC)CC2)cc2sccc21,inactive: -16.3%
14,Cc1cc(C)cc(NS(=O)(=O)c2ccc3c(c2)NC(=O)C(C)S3)c1 (centres undefined),inactive: 1.86%
15,CCOCCCNC(=O)C1CCC(CNS(=O)(=O)c2ccc(NC(C)=O)cc2)CC1 (centres undefined),inactive: -2.56%
16,Cc1ccc(C)c(CN2C(=O)c3ccccc3S(=O)c3ccc(C(=O)NCc4ccccc4)cc32)c1 (centres undefined),inactive: 13%
17,COc1ccc(NC(=O)c2ccc(-c3nc(CSc4ccccc4)c(C)o3)cc2)cc1OC,inactive: -2%
18,COc1ccccc1Cc1nc2ccccc2[nH]c1=O,inactive: 10.6%
19,Cc1c(C(=O)NCc2ccccc2Br)oc2c1-c1[nH]ncc1CC2,inactive: -4.14%
20,CCc1ccc(S(=O)(=O)c2nnn3c2nc(NC2CCCCCC2)c2sccc23)cc1,inactive: 27.9%
21,COc1cccc2c1Oc1ncccc1N(C(=O)Nc1ccc(F)c(Cl)c1)C2,inactive: 5.79%
22,CCOC(=O)C(CC)Sc1ccc2nnc(CCNS(=O)(=O)c3ccc(C)cc3)n2n1 (centres undefined),inactive: 14.7%
